Measured values reported in PubChem BioAssay AID743279 (National Center for Advancing Translational Sciences (NCATS), 2014).
About 17,000 (4.7%) of roughly 360,000 compounds were called active. This list was built around the results that the source calls inconclusive (neither active nor inactive); the mix of calls is not that of the screen. Cut-off read from the data, not from the text of the source: active = activity change below about -50%; inconclusive = mostly about -30% to -49%; inactive = weaker than that.

Experiment: qHTS for Inhibitors of Inflammasome Signaling: IL-1-beta AlphaLISA Primary Screen
Conditions: THP-1 LPS/ATP IL-1B secretion, 16 h; at 57.5 µM, stronger effect = lower value
Outline: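 THP-1 cells pretreated 1 hr with compounds (up to 57.5 uM final), then stimulated with LPS (250 ng/mL final) plus ATP (1.25 mM final); secreted IL-1B measured by AlphaLISA after 16 hr, decreased signal indicating inhibition.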
% is set by controls: 0 for no effect and ±100 for the full control effect.

| Compound | activity change |
| --- | --- |
| COc1ccc(NCc2ccc3c(c2)OCO3)cc1Cl | active: -93.4% |
| COc1cc(N=Nc2cccc(S(N)(=O)=O)c2)c2ccccc2c1N | inconclusive: -36.7% |
| C[C@H]1CN([C@@H](C)CO)C(=O)c2cc(C3=CCCCC3)cnc2O[C@@H]1CN(C)C(=O)Cc1ccccc1 | inconclusive: -43.1% |
| O=C(Nc1nnc(Cc2ccc([N+](=O)[O-])cc2)s1)Nc1ccccc1F | inconclusive: -33.4% |
| CCN1C(=O)/C(=C2/C=Cc3cc(C)ccc3N2CC)N(C)C1=S | inconclusive: -36.5% |
| COc1cc(NC(=O)c2ccc(N3CC4CC(C3)c3cccc(=O)n3C4)c(NC(=O)c3ccncc3)c2)cc(OC)c1OC (configuration not stated) | inconclusive: -48.4% |
| Clc1ccc2[nH]c3c(NCCCN4CCOCC4)ncnc3c2c1 | active: -90.1% |
| O=C(Nc1ccc2c(c1)OCCO2)c1cc2sccc2n1Cc1ccccc1 | inconclusive: -34% |
| OCC[C@@H]1NCc2cc(CO)cc(-c3ccccc3)c21 | inconclusive: -31% |
| COc1ccccc1C(=O)N=c1sc2c(C)ccc(OC)c2n1C | inconclusive: -40.8% |
| CC(=O)Nc1sc2c(c1-c1nc3ccccc3s1)CCN(C(C)C)C2 | active: -105% |
| CCOc1ccc(CCNc2nc3ccccc3n3cnnc23)cc1OCC | inactive: 4.94% |
| O=c1c2ccsc2ncn1Cc1ccc(Cl)cc1 | inactive: -2.41% |
| C=Cc1cc2c(cc1O)CCC1C2CCC2(C)C(O)CCC12 (configuration not stated) | inconclusive: -34.2% |
| CCOC(=O)C1C(=O)C=C(c2ccc(OC)cc2)CC1c1ccco1 (configuration not stated) | active: -62.8% |
| CCc1ccc2oc(-c3ccc(NC(C)=O)cc3)nc2c1 | inconclusive: -46% |
| Cc1cccc(N2CCN(CC(O)COCc3cccs3)CC2)c1C (configuration not stated) | inconclusive: -47.8% |
| CCOc1ccc(NS(=O)(=O)c2cnc(Cl)c(Cl)c2)cc1 | active: -99.2% |
| CCCNC(=O)c1cc(-c2ccc3c(c2)OCO3)on1 | inconclusive: -33.6% |

| Compound | activity change |
| --- | --- |
| COCCn1c(SCC(=O)N2CCOCC2)nc2c(c1=O)SCC2 | inactive: -6.94% |
| CC(=O)c1ccc(NC(=S)NCc2ccco2)cc1 | inconclusive: -37.9% |
| S=c1[nH]nc(CCc2nc3ccccc3[nH]2)n1-c1cccc(Cl)c1 | inactive: -16% |
| CCOC(=O)c1cnn(-c2ccccc2)c1N | inconclusive: -35.1% |
| Cc1nc2cc(NC(=O)NC3CC3)ccc2n1C | inconclusive: -30.4% |
| O=S(=O)(Nc1ccc(-c2cn3c(n2)SCC3)cc1)c1ccccc1F | inactive: 5.48% |
| C=CCNC(=O)c1ccc(Sc2ccccc2)c([N+](=O)[O-])c1 | inactive: 19.7% |
| CN(C)c1ccc(Cl)cc1N | inactive: 7.97% |
| CCOC(=O)C1(CCCc2ccccc2)CCN(S(=O)(=O)N(C)C)CC1 | inconclusive: -41.4% |
| O=C1C[C@H]2[C@H](CO)[C@@H](OC(=O)c3ccc(-c4ccccc4)cc3)C[C@H]2O1 | inconclusive: -32.6% |
| O=c1[nH]c(=O)n(C2CCCCCC2)c(O)c1C=NCc1ccc(F)cc1 | inconclusive: -47.9% |
| CCOc1ccccc1CN1CCN(C/C=C/c2ccc(OC)cc2)CC1CCO (configuration not stated) | inconclusive: -30.1% |
| CN(C)c1ccc(C(CNC(=O)c2ccc(C#N)cc2)c2c[nH]c3ccccc23)cc1 (configuration not stated) | inconclusive: -46.2% |
| O=C(N/N=C/c1ccc(N2CCCCC2)o1)c1ccccc1[N+](=O)[O-] | inconclusive: -43.6% |
| O=C(NC1CCCC1)C1CCC(CNS(=O)(=O)c2ccccc2)CC1 (configuration not stated) | inactive: -3.04% |
| COc1ccc(OC)c(CC(NC(C)=O)C(=O)NC2CCN(c3nc(OC)nc(OC)n3)CC2)c1 (configuration not stated) | inactive: 3.47% |
| Cc1cc(C(=O)CN2C(=O)NC3(CCCCC3C)C2=O)c(C)n1Cc1cccs1 (configuration not stated) | inactive: -6.31% |
| Cc1ccc2nc(SCC(=O)OCc3ccccc3)nc(=O)n2c1 | active: -55.9% |
| Clc1ccc(Cc2nc(-c3ccncc3)no2)cc1 | inactive: -16.4% |

| Compound | activity change |
| --- | --- |
| Cc1cccc(NC(=O)COC(=O)c2cccs2)c1C | inactive: -9.77% |
| CC(C)(C)OC(=O)N1CCC[C@H]1C(=O)Nc1ccc(S(=O)(=O)C(F)F)cc1 | inactive: 23.1% |
| O=C(Nc1ccccc1[N+](=O)[O-])C1C(c2ccccc2)=C1c1ccccc1 | inconclusive: -38% |
| N#Cc1cccc(NC(=O)CNc2cc(S(=O)(=O)N3CCOCC3)ccc2N2CCCC2)c1 | inconclusive: -31.2% |
| CC(C)(C)NC(=O)c1cc(-c2ccc3c(c2)OCO3)nc2ccccc12 | inactive |
| C[C@@H](NC(=O)[C@H]1O[C@@H](n2cnc3c(N)ncnc32)[C@H](O)[C@@H]1O)c1cccc2ccccc12 | inconclusive: -46.6% |
| COc1ccccc1N(Cc1ccccc1)S(=O)(=O)c1cccc(C(=O)Nc2ccccn2)c1 | inconclusive: -42.8% |
| COc1cc(C(=O)NC(=S)NNC(=O)c2cnccn2)cc(OC)c1OC | inactive: 11.4% |
| COc1cccc(C(=O)Nc2nnc(C(C)C)s2)c1 | inactive: -9.58% |
| C/C(N)=C(/C#N)C(=O)COC(=O)CSc1ccccc1 | inactive: 9.55% |
| NC(=O)N1N=C2/C(=C/c3ccccc3)CCCC2C1c1ccccc1 (configuration not stated) | active: -57.3% |
| CCOP(=O)(OCC)C(NC(=O)c1cccs1)C(F)(F)F (configuration not stated) | inconclusive: -37% |
| CC1CCN(C(=O)CSc2nnc3ccc(-c4cccnc4)nn23)CC1 | active: -57.1% |
| Cc1ccc2c(c1)C(=O)C(=O)N2CC(=O)OC(C)C | inactive: 12.6% |
| CC1=C(C(=O)N2CCOCC2)CC(CC(=O)NCc2cccc3ccccc23)C(=O)N1Cc1ccc(C(C)(C)C)cc1 (configuration not stated) | inconclusive: -46.2% |
| Cc1cccc(-n2c(O)c(C=Nc3ccc4c(c3)OCO4)c3ccccc3c2=O)n1 | inconclusive: -37.5% |
| Cc1c(C(=O)NCCC2=CCCCC2)oc2ccc(S(=O)(=O)N3CCOCC3)cc12 | inconclusive: -42.8% |
| COc1cccc(N/C=C/C(=O)c2ccc(OC)c(OC)c2)c1 | inconclusive: -45.4% |
| CCOc1cc(C(=O)O/N=C(\N)c2ccc([N+](=O)[O-])cc2)cc(OCC)c1OCC | inconclusive: -31.3% |
